About 540 (0.36%) of roughly 150,000 compounds showed an effect of 50% or more. This is one part of the list.
tested on: Plasmodium falciparum; assay: Primary screen in NF54 nanoGlo assay, in single point, at 2uM, 72h; a lower Z score goes with more inhibition; type: functional, Erythrocyte; settings: timepoint 72 hour

Structure (SMILES)	% Inhibition [%]	Z score
CC(C)c1nn(C)cc1-c1noc(C2CC3C=CC2C3)n1 (stereo not given)	-4	0.59
COCCN(CC1CN(Cc2ccco2)CC1c1cccc(F)c1)C(=O)C(C)C (stereo not given)	-1	0.2
O=C(NCc1nnc2ccccn12)c1c[nH]c2cc(Cl)ccc2c1=O	-2	0.23
CCOc1ccc(CNC(=O)c2cccc(Nc3nc4ccccc4n4cnnc34)c2)cc1OC	15	-2.35
CCNC(=O)[C@@H]1CC[C@](C)(C(=O)Nc2cnn(CC(=O)NC)c2)C1(C)C	-15	2.88
Cc1nc(NC2CCOCC2)c2sccc2n1	-12	1.92
CO[C@@]12CC[C@H](Oc3ccccn3)C[C@@H]1N(CC1(C)CCOCC1)CC2	-11	2.19
CN1C[C@@H](NC(=O)CCc2cccn2C)CCC1=O	-4	0.69
CN1CCCN([C@H]2CC(=O)N(c3ccc(Br)cc3)C2=O)CC1	-10	1.4
COCc1nc(NC2CCC(NC(=O)c3ccc4c(c3)OCO4)CC2)c2c(C)nn(-c3ccccc3)c2n1 (stereo not given)	22	-2.52
CC(C)CC(C)CC(=O)N1CCCC(N(C)C(=O)C2CCC2)C1 (stereo not given)	-8	1.19
C[C@]1(NC(=O)c2cc(F)cc(Cl)c2O)CCOC1	-5	0.66
Cc1noc(C)c1CN[C@@H](C)CC1CCCCC1	-8	1.48
O=C(Nc1ncc(Cc2ccccc2)s1)N1CCS(=O)(=O)CC1	-6	0.88
CC(C)(C)n1cc(C(=O)Nc2scnc2-c2ccc(F)cc2)cn1	-5	0.49
CC(C)(C)OC1CC(NC(=O)CC#N)C1n1cccn1 (stereo not given)	7	-1.01
CCc1cnc(Cn2cnc3c(cnn3C)c2=O)o1	-9	1.41
OC1(CNc2nc3ccccc3o2)CCOCC1	-3	0.62
COc1ccc(OC)c(C2CCCN2C(=O)CN2C(=O)NC(C)(c3ccc(C(C)(C)C)cc3)C2=O)c1 (stereo not given)	5	-0.83
CCn1cnnc1CCNc1nc(COC)nc2c1cnn2C	1	-0.15
COCc1nc([C@@H]2CCCCCN2C(=O)c2cc(C(C)C)no2)no1	2	-0.2
CC[C@H]1CN(C(=O)c2cnc(N3CCN(C)CC3)nc2C)CCN1C(C)C	-2	0.38

Structure (SMILES)	% Inhibition [%]	Z score
CC1(C)CN(CCc2ccc(F)c(F)c2)C[C@@]2(CCOC2)O1	-11	2.09
CCOc1ccnc(NCCN2CCC(CO)CC2)n1	-12	1.48
COc1ccc(C(=O)n2[nH]c(=O)c(CCO)c2C)cc1	32	-0.49
COc1ccc(O[C@H]2CCN(C(=O)c3ccc(C#N)cc3)C2)nn1	0	-0.02
Cc1cc(=O)n(CC(=O)Nc2ccc(F)c(F)c2)c(Nc2ccc(C)c(C)c2)n1	-27	2.94
COCCN(C(=O)c1nccc2cccnc12)[C@H]1CCOC1	-7	0.7
CN(C)c1ccc(/C=C/c2ccnc3cc(Cl)ccc23)cc1	-8	0.97
Cc1nccc(NC(=O)C(C)(C)Oc2cccc(Cl)c2)c1Cl	8	-0.96
Cc1cc(NC(=O)N2CC3C(C2)C3(C)C)c(C#N)cc1N(C)C (stereo not given)	-12	1.73
CS(=O)(=O)N1CCc2cc3ccccc3nc21	-10	1.13
O=C(COc1cccnc1)NC(Cc1ccccn1)[C@H]1C[C@@H](O)C1 (stereo not given in full)	10	-1.26
CCc1nn(C)c2c(=O)n(CC3(C)COC3)cnc12	1	-0.22
CCOCCCNC(=NC)NCCc1ccc(OC)cc1	-9	0.78
COc1ccc(F)cc1CC(=O)N1CCNC(=O)c2ccccc21	-10	1.66
COc1ccc(CCc2nnc(CCC(=O)N3C[C@@H](C)O[C@@H](C)C3)o2)cc1	-23	2.06
Cc1cc(C)nc(O[C@H]2CCCN(S(=O)(=O)c3cccc(Cl)c3C)C2)n1	5	-0.65
Cc1ccc(C(=O)NC(c2ccc(F)cc2)C2CCCO2)c(=O)[nH]1 (stereo not given)	-10	1.23
CC(C)OCCNc1nc(N)c2ccsc2n1	8	-1.08
CCn1cc(C#N)c(=O)n(CC(=O)Nc2cccc(C(=O)NC3CC3)c2)c1=O	-6	1.14
CCOCCC(=O)Nc1ccc(Br)cc1C	-6	1.19
O=C(c1ccncc1)N1CCC[C@@](F)(C(=O)N2CCCC2)C1	-28	2.44
Cc1cc(CS(=O)(=O)NC2c3ccccc3CCCC2C)no1 (stereo not given)	0	-0.02

Structure (SMILES)	% Inhibition [%]	Z score
COc1ccccc1[C@@H](c1ccc2c(OC)cccc2c1O)N1CCCCC1	-2	0.29
C[C@@H](C(=O)N1CCN(Cc2ccc3c(c2)OCO3)CC1)n1sc2ccccc2c1=O	-4	0.85
COc1ccccc1C(=O)NC[C@]1(O)CCCN(C(=O)c2ccc[nH]2)CC1	-19	3.67
Cc1ccc(-c2cc(C(=O)N3CCC(NC(=O)c4ccccc4C)CC3)[nH]n2)c(C)c1	-6	0.82
CCCNC(=O)N1CC[C@@]2(CCCN(CC3CCCCC3)C2=O)C1	1	-0.13
FC(F)(F)c1ccc(-n2cc(NCc3ncc[nH]3)cn2)cc1	-1	0.08
CC(C)(C)Cc1ncc(C(=O)N2CCO[C@]3(CCOC3)C2)s1	-2	0.31
CNc1ccnc(N(C)Cc2snnc2C)n1	16	-2.08
O=C1CCC(=O)N1C1CC2CCC(C1)N2S(=O)(=O)c1ccc(C(F)(F)F)cc1 (stereo not given)	-12	1.39
Cc1nn(-c2ccccc2)c(N2CCN(C)CC2)c1CN(CCC(C)C)C(=O)c1cc(C(F)(F)F)cc(C(F)(F)F)c1	7	-0.85
CC(C)N1CCC(CC(=O)N[C@@H](C)[C@H](O)c2ccccc2)CC1	-13	1.67
CS(=O)(=O)N1CCN(C(=O)COC(=O)C2(c3cccc(Cl)c3)CCCCC2)CC1	0	-0.05
CC(C)CCC1CCCC1NCc1nc(=O)[nH][nH]1 (stereo not given)	5	-0.58
CCNc1nc2c(s1)[C@@H](c1ccc3c(c1)OCO3)CC(=O)N2	-10	0.96
Cc1cnc(N(C)CCc2c(C)n[nH]c2C)nc1-c1ncnn1C	1	-0.14
CCc1onc(C)c1[C@@H]1CCCN1C(=O)c1c(Cl)cnn1CC	-7	0.99
c1ccc2c(N3CCCC3)nc(N3CCN(C4CCCCC4)CC3)nc2c1	-5	0.7
CCCO[C@H]1CCCN(S(=O)(=O)c2c(C)cc(C)c3nonc23)C1	-15	2.95
CC(C)[C@H](NC(=O)c1ccc(Oc2ccccc2)o1)C(N)=O	-9	1.67
Cc1c[nH]c([C@H](C)n2cnc3ncccc3c2=O)n1	-3	0.61
Cc1cccc(NC(=O)Cn2c(C)cc(C)c(-c3nc(-c4ccccc4)no3)c2=O)c1	-10	1.83
CN(C)S(=O)(=O)N1C[C@H]2CCC(=O)c3cccc1c32	0	0.02

Structure (SMILES)	% Inhibition [%]	Z score
O=C(Cn1c(=O)c2nncn2c2ncccc21)N1CCN(c2ccccc2)CC1	0	0.06
Cc1cccn2cc(C(=O)N3CCCn4cncc4C3)nc12	13	-1.23
NC1=C(c2nc3ccccc3s2)C(=O)CN1Cc1ccco1	30	-3.34
COc1cc(CN[C@H](c2ccc(F)c(Cl)c2)C2CC2)on1	-6	0.82
O=C(CCCN1CCCCC1=O)NCCC1(O)CCCC1	-10	1.16
COc1cc(N[C@@H]2C(=O)Nc3c(C)cccc32)ncn1	-6	0.7
CCCn1ncc(C(=O)NCCCn2ccnn2)c1C	-11	1.35
Nc1noc2cc(C(F)(F)F)cnc12	33	-0.53
COc1ncc(-c2c(C#N)c(N)nc3c2C[C@@H](c2ccccc2)CC3)cn1	3	-0.45
COc1ccc(C)cc1[C@@H](O)CN1CCN(c2ncccn2)CC1	1	-0.17
CCc1cc2c3c([nH]c2cc1S(=O)(=O)N(CC)c1ccccc1)CCCC3=O	-11	2.04
CNS(=O)(=O)c1ccccc1NS(=O)(=O)c1c(C)sc2ccccc12	-2	0.29
c1nc(CCc2nc(C3CC4CCCCN4C3)no2)cs1 (stereo not given)	-9	1.19
COc1ccc(C)c2sc(N(Cc3cccnc3)C(=O)c3ccnn3C)nc12	-9	1.68
CC(C)(O)CCn1c(=O)n(C2=CCCCC2)c2ccccc21	-9	0.95
CCC(C(=O)N1CCCCC1c1cc(C(N)=O)[nH]n1)c1ccccc1 (stereo not given)	14	-1.86
Cc1cccc(OCc2nc(CN(CCN3CCCC3)C(=O)C(C)C)cs2)c1C	-5	0.81
Cc1cc(C)c(C)c(S(=O)(=O)N2CC(O)C[C@H]2C(=O)NCC(=O)OCC2CC2)c1C (stereo not given in full)	1	-0.06
Fc1ccc(OC2CCN(c3ccc4nnnn4n3)CC2)c(F)c1	1	-0.19

Source: ChEMBL document CHEMBL4888484, “Replenishing the malaria drug discovery pipeline: Screening and hit evaluation of the MMV Hit Generation Library 1 (HGL1) against asexual blood stage Plasmodium falciparum ,using a nano luciferase reporter read-out” (2022)
